Measured values reported in the supplement of paper PMC3724861.
Some of the results follow.

Each sequence was assayed on T1, Caupolican (Caup) homeodomain DNA-binding domain (assay: PBM E-score (8-mer, recovered from the published 9-mer minima) (E-score (dimensionless, -0.5 to 0.5)); Drosophila protein; higher = stronger relative binding preference, active = 0.31 or more).
T1 sequence: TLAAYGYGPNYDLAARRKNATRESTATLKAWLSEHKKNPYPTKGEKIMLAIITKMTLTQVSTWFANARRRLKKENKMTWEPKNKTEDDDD
Procedure: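 Protein binding microarray (PBM): in vitro transcribed/translated Caupolican (Caup) homeodomain DNA-binding domain (residues 214-303) applied at 100 nM to a universal 8-mer PBM array (Agilent AMADID 015681). The 8-mer enrichment score (E-score, range -0.5 to 0.5) was computed, and each 9-mer score is the minimum E-score of its two constituent 8-mers. The E-score is the same for a 9-mer and its reverse complement; 0.31 is the stated binding threshold.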

PBM E-score, ≥ 0.182:
TATCAAGA

PBM E-score, inactive:
CATTAAGG -0.00904
TGGACGAA 0.0126
CGTTGAGC -0.0886
ACGCCCGT -0.114
ATACCATA 0.195
CTGGTGCC -0.0994
ACAGTAAT 0.232
GCTCGACC -0.211
CGGACTTC -0.186
TAAAATAA 0.0766
CTACCGGA -0.109
TCGGTTCA -0.0112
CACCTATC 0.145
CACCTGAA -0.00184
CTGCTTTA 0.0339
GGACAGTA 0.133
AATCTGGC -0.135
GATGCTCA -0.0713
ATTCTGCG 0.0221
AAGTCGCG -0.0379
AACGAGCG 0.0888
ACACAAAA 0.224
CTTTCCCC -0.175
ACTGAAAC 0.0856
CCGCCGGC -0.236
CCGTCAGA -0.134
AGCTGCTG -0.116
ATTTTTAC 0.128
AACCTAGT 0.0542
ACTGTGTG 0.0583
CACGACCC -0.0834
GCGTAGAA -0.0167
ACAGTAGT 0.15
CGTCTATA 0.0331
AACGCCGG -0.0848
GACCTAAC 0.0777
GGAAAGGA -0.0886
AAGTGTGT 0.245
CTTCTCGA 0.015
CTAAACGA 0.0555
ATCTGGTG 0.0648
CATATAGA 0.159
GGCTTCAC -0.193
GCCGATGA -0.172
GAGACACC -0.0907
CGAGGACA 0.0575
AGTCTGAT 0.0829
ACGCGATC 0.0727
ATGCCCAA 0.0055
AATCGTCG -0.0569
CCCCGAAA -0.0878
ACCTTAAG -0.159
ATGAACCG 0.039
ACGAAAGC -0.038
GAGGTCAC -0.138
CGACCCCC -0.356
CCACAGAC -0.047
GGACTCAC -0.173
ACCGGTGG -0.187
AATGACCG -0.0257
GCTGATAC 0.0701
CCCCAGGA -0.246
CCGTCGAC -0.0932
AATGGCAC 0.00307
GCAGGTAA -0.00378
GTCCCCAA -0.0949
ATACCCAA 0.0238
AGAAGCTA -0.0747
CAAGGCGG -0.0607
ACGTTGAC 0.1
GTGGTAGA -0.0232
AATGCGCG -0.051
ACACGCCT 0.223
CTCGCGCA -0.126
CGAGAGCG -0.158
GTTTACGA 0.164
AACGATGA 0.0452
CAGGCGCG -0.232
CCGCTCCG -0.23
ACTCGGAG -0.12
CAGCAACC -0.0555
AAACCCTC -0.111
TGTATAAA 0.261
ACAGAACC 0.014
ACCTGATC 0.0465
AACGCTTG 0.0171
CTCTTAAC 0.0321
ACGAGAAC 0.0861
CTGACTCC -0.167
GCACGGTA 0.0312
GCCCGCAC -0.169
ACGATATG 0.14
ATGTACGC 0.29
ACATTTAA 0.16
AAAGGCGG -0.0845
TAGGCAAA -0.0532
GCAATCAC 0.0334
AATGAGGC -0.148
ATTCCCAC -0.0202
GCACTTCC -0.177
AATACCTG 0.107
ACTCGCTA -0.105
GCCCGGAC -0.163
AAACCACT 0.0715
AATAGCGA 0.165
CTGATTGA 0.0462
GAACAGGC 0.0467
CCTCCGAA -0.149
ACCGATTA 0.057
AATAGGTC 0.117
AGTGTGAT 0.104
ACGCACAC 0.0386
ATAAGCGA 0.0457
CGTCACAG 0.0559
GAGAAGTA 0.0161
CGCACGAC -0.0375
ATTGCACA 0.113
CGGGGAGC -0.242
GTGAAGTA 0.0389
CCCGAGGG -0.224
TATAACAA 0.306
ATTTCGTC 0.0811
CCTGTCAC 0.144
AGTCGAAT 0.021
ACCCACCT -0.166
AGGTGGGC -0.18
AACCGTTC -0.102
CCGACAAC 0.198
CCTGTACC 0.11
AATGAGAA 0.00508
GGCTCCCC -0.332
ATAATGCG 0.0827
CGGGATAC 0.0126
ATCATGTG 0.226
AACTTAGT -0.0383
CATCGAAC 0.0773
ACGGCAGA -0.0972

PBM E-score, active:
ATGTTGTA 0.431
AAACTACA 0.331

PBM E-score, ≥ 0.232:
TACTATAA

PBM E-score, ≥ 0.248:
TAATCACA
